# According to paper PMC4336329 (PLoS ONE, 2015):
# Hit rate of the full screen: of about 310,000 compounds, about 14,000 (4.5%) showed an effect of 50% or more. Effects have a minus sign here. The list shows a part of the results.
# Biological target: human ether-à-go-go-related gene (hERG) potassium channel (human, UniProt Q12809)
# Experiment: primary screen, population patch clamp on CHO cells stably expressing hERG
# 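Further: peak tail current of the secondary pulse compared with the same well before compound.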
# human ether-à-go-go-related gene (hERG) potassium channel, sequence (Q12809 whole entry, looked up): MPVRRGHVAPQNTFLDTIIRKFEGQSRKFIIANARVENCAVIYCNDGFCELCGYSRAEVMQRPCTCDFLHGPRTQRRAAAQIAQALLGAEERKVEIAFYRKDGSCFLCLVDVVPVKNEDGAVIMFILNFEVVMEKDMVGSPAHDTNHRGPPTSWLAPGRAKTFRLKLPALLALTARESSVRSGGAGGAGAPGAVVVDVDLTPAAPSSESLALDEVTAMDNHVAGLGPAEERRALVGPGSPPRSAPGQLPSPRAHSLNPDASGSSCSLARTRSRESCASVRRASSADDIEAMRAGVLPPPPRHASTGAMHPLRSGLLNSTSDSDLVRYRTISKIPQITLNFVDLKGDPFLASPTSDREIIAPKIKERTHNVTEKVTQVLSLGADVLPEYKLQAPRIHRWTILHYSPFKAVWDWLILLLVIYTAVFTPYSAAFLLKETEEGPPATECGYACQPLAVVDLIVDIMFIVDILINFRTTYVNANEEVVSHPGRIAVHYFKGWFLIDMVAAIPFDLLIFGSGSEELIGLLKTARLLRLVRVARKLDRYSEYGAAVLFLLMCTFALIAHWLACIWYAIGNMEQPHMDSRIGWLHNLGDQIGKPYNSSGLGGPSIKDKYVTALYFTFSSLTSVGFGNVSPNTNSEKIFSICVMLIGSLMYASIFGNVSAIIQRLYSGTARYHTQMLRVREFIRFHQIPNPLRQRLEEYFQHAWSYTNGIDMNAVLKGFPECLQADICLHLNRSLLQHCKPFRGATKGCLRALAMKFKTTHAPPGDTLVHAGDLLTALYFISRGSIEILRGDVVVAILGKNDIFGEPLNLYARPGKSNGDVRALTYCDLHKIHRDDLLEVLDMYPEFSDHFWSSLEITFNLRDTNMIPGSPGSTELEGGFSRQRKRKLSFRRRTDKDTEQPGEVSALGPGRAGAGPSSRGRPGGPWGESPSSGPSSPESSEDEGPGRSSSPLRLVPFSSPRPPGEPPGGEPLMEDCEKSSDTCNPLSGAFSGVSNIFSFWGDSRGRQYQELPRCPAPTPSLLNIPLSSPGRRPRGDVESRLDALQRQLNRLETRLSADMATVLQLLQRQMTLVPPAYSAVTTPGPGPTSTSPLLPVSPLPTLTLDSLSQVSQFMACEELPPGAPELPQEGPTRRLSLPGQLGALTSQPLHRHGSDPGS
row,Structure (SMILES),"hERG current change (%, negative = inhibition) at 10uM [%]"
1,CC(C)N1CCC(N2CCN(CC#Cc3ccccc3)CC2CCO)CC1 (centres unmarked),0.615
2,CN(C)c1ccc(/C=N/n2ncc3ccccc32)cc1,0.149
3,O=C(Cc1cccs1)Nc1ccc(C(=O)O)cc1,-0.374
4,CCN(Cc1ccccc1)C(=O)Cn1cnc2c1c(=O)n(C)c(=O)n2C,-16.1
5,N#CC1=C(N)OC(c2ccccc2)=C(C#N)C1c1ccc2c(c1)OCO2 (centres unmarked),14.3
6,CC(NC(=O)COC(=O)Cc1ccccc1[N+](=O)[O-])c1ccccc1 (centres unmarked),15.9
7,Br.N=C(N)SCCc1cccc(CCSC(=N)N)c1,0.563
8,CN(C)c1ccc(/C=C2\SC(N3CCCCC3)=NC2=O)cc1,-21.8
9,Cn1c(=O)c(=O)n(C)c2cc(N3CCCCC3)c(NS(=O)(=O)c3ccc(Br)cc3)cc21,-65.1
10,CCCN(CCC)CCCNC(=O)c1cc2cc3ccc(Cl)cc3nc2o1,-61
11,COc1ccc(CCNC(=O)[C@H](C)NC(=O)N2CCn3c2nc2ccccc23)cc1OC,13.1
12,O=C(CN1C(=O)CC(c2ccccc2)S(=O)(=O)c2ccccc21)N1CCCCC1 (centres unmarked),8.44
13,O=C(NCCN1C(=O)C2C3C=CC(C3)C2C1=O)Nc1ccccc1O (centres unmarked),-6.92
14,CN(C)c1cccc(C(=O)NCc2ccc3c(c2)OCO3)c1,-32.6
15,COc1ccc(/C=C2\SC(=S)N(NS(=O)(=O)c3ccccc3)C2=O)c(OC)c1,-33.1
16,O=C1CN(c2ccccc2Cl)C(=O)CN1c1ccccc1Cl,-9.65
17,O=C(CN1C(=O)C2C3CC(C(Br)C3Br)C2C1=O)OCC(=O)c1cccc([N+](=O)[O-])c1 (centres unmarked),25.3
18,O=C(Nc1cccnc1)c1cc(-c2cccs2)on1,-16.1
19,CCCOc1ccc(N2C(=O)CC(N(Cc3ccco3)C(=O)CC)C2=O)cc1 (centres unmarked),-0.0593
20,O=C(Nc1ccc(F)cc1)C(c1ccccc1)N1CCN(S(=O)(=O)c2ccc3ccccc3c2)CC1 (centres unmarked),7.46
21,Cc1cc(C)c2nc(N(CCCN(C)C)C(=O)C3=COCCO3)sc2c1.Cl,-65.9

row,Structure (SMILES),"hERG current change (%, negative = inhibition) at 10uM [%]"
1,Cc1ccccc1/C=N/Nc1ncnc2nc[nH]c12,5.82
2,CC1CCC2C(=O)N(c3cccc(OS(=O)(=O)c4ccccc4)c3)C(=O)C2C1 (centres unmarked),-24.9
3,O=C(CCN1C(=O)/C(=C/c2ccccc2Cl)SC1=S)NCCc1ccc(O)cc1,13.9
4,Cc1ccc(C(=O)COC(=O)CNC(=O)c2ccc(Br)o2)cc1[N+](=O)[O-],4.86
5,Cc1ccc(NC(=O)COC(=O)CCC(=O)c2cccs2)cc1C,8.49
6,O=C(Nc1ccccc1)/C(=C/c1ccc(F)cc1)NC(=O)c1ccco1,-2.63
7,Cc1ccccc1OCCC(=O)Nc1ccccc1C(=O)N1CCCCC1,-10.8
8,Nc1nc(N)nc(-c2ccc(Oc3ccccc3)cc2)n1,15.6
9,Cn1c(Cc2ccccc2)nnc1SCC(=O)Nc1ccccc1N1CCOCC1,-1.63
10,Cc1ccc(S(=O)(=O)Nn2c(C)nnc2-n2nc(C)cc2C)cc1,-3.39
11,Cc1cc(C)c(C)c(S(=O)(=O)NC(C(=O)NCCc2ccco2)C(C)C)c1C (centres unmarked),-5.41
12,N#CC1(P(=O)(c2ccccc2)c2ccccc2)CCCC1,-46.1
13,N#CCc1nn2c(-c3ccccc3)ccnc2c1C#N,4.28
14,Cc1ccc(C)c(N(CC(=O)NCCc2ccccc2)C(=O)CCC(=O)Nc2ccccn2)c1,-8.07
15,N#CCSc1nnc(-c2ccc(S(=O)(=O)N3CCOCC3)cc2)n1CC1CCCO1 (centres unmarked),12.2
16,COc1ccc(-n2cnnc2)cc1,5.2
17,Cc1[nH]c2ccccc2c1CCC(N)=O,-13.2
18,COc1ccc(Cl)cc1N(CC(=O)N(C)C)S(=O)(=O)c1ccc(C)c([N+](=O)[O-])c1,-11
19,COc1cccc(CN2CC(C(=O)NCCn3cccn3)CCC2=O)c1 (centres unmarked),27.9
20,O=C(CNC(=O)c1ccccc1Cl)OCC(=O)N1CCc2ccccc21,-10.5
21,O=c1sc(/C=N/Nc2ccccc2)c(Cl)n1Cc1ccccc1,18.8

row,Structure (SMILES),"hERG current change (%, negative = inhibition) at 10uM [%]"
1,CCOC(=O)N1CCN(CC(O)COCC2=CCC3CC2C3(C)C)CC1.O=C(O)C(=O)O (centres unmarked),-27.4
2,CCN(c1ccccc1)S(=O)(=O)c1cc(C(=O)Nc2cccc(Cl)c2)ccc1F,19.5
3,Cc1cc(C)c2c(NC(=S)NC(=O)c3ccccc3)n[nH]c2n1,18
4,O=C(Cc1cccc2ccccc12)NNC(=O)Nc1ccc(Cl)cc1,7.23
5,COc1ccc(C(CC(=O)O)NC(=O)c2cc3cc(Br)ccc3oc2=O)cc1OC (centres unmarked),28.8
6,Cc1c(NC(=O)COC(=O)/C=C/c2ccccc2Br)c(=O)n(-c2ccccc2)n1C,-0.436
7,CCCCOc1ccc(-c2ncc(C(=O)O)c(C)n2)cc1,17.3
8,CCN(C(=O)CN1CCN(c2ccc(O)cc2)CC1)c1c(N)n(Cc2ccccc2)c(=O)[nH]c1=O,-37.3
9,CCOC(=O)C1CCN(C(c2cccc(OC)c2)c2sc3nc(C)nn3c2O)CC1 (centres unmarked),-22.1
10,COc1cc(NC(=O)CSc2nnc3c(C)cc4cc(C)cc(C)c4n23)c(C(=O)O)cc1OC,5.37
11,CS(=O)(=O)N1c2ccccc2[C@]2([C@@]34C[C@H]5C(=O)N[C@@H](Cc6ccccc6)C(=O)N5[C@@H]3N(S(C)(=O)=O)c3ccccc34)C[C@H]3C(=O)N[C@@H](Cc4ccccc4)C(=O)N3[C@H]12,19.7
12,O=C(CNC(=O)c1ccccc1)NCC(=O)OCc1ccccc1Cl,21.1
13,Cc1cc(C)n(-c2ncccc2[N+](=O)[O-])n1,12.4
14,N#Cc1ccc(-c2ccc(OCC(O)Cn3nnc4ccccc43)cc2)cc1 (centres unmarked),0.164
15,Oc1[nH]c2ccccc2c1C=NCC1CCCO1 (centres unmarked),13.2
16,COCCN1C(=O)C(=O)/C(=C(/O)c2ccc(S(=O)(=O)N3CCOCC3)cc2)C1c1ccc(O)cc1 (centres unmarked),3.78
17,O=C(CCc1ccccc1)N=C1SC2CS(=O)(=O)CC2N1Cc1ccc(F)cc1 (centres unmarked),21.7
18,CCc1nc2ccccc2n1CC1CC1(Cl)Cl (centres unmarked),2.4
19,O=C1N(c2ccc(Cl)cc2)C(c2ccc(Cl)cc2)N2CCCN12 (centres unmarked),-16.7
20,COc1ccc(/C=N/NC(=O)c2[nH]c3ccc(Br)cc3c2-c2ccccc2)cc1,7.87
21,CC(C)(C)NC(=O)C(c1ccc(F)cc1)N(Cc1ccco1)C(=O)CCC(=O)Nc1ccccn1 (centres unmarked),-26.7

row,Structure (SMILES),"hERG current change (%, negative = inhibition) at 10uM [%]"
1,CN(CCO)c1cc(N2CCC3(CC2)OCCO3)c2nonc2c1[N+](=O)[O-],14.4
2,COc1ccc(-c2noc(N3CCC(C(=O)NCCCN4CCCC(C)C4)CC3)n2)cc1 (centres unmarked),-39.1
3,CCC(C)N1C(=O)N(C)C2NC(=O)NC21 (centres unmarked),-2.9
4,COc1cccc(-c2cc(C(=O)N3CCN(c4ccccc4OC)CC3)no2)c1,1.15
5,COCCOC(=O)C1=C(C)N=C2SCCC(=O)N2C1c1ccc(C(=O)OC)cc1 (centres unmarked),7.26
6,COc1ccc(-c2cc(C(=O)N/N=C/c3cc(OC)c(OC)cc3OC)c3ccccc3n2)cc1,15
7,O=[N+]([O-])c1cc(C(F)(F)F)ccc1Sc1ccccn1,-28.5
8,Cc1nnc(SCC(=O)N2c3ccccc3C(C)(c3ccc(Cl)cc3)CC2(C)C)s1 (centres unmarked),1.05
9,COc1ccc(NC(=O)CN(C)S(=O)(=O)c2ccc3c(c2)CC(C)N3C(C)=O)c(OC)c1 (centres unmarked),-4.01
10,COC(=O)c1ccc(NC(=O)Nc2ccc(F)c(Cl)c2)cc1,15
11,CC(C)(O)C#Cc1ccc(CN2CCN(Cc3ccccc3)C(CCO)C2)s1 (centres unmarked),4.64
12,Cc1cc(NC(=O)CSc2nc3c(cc2C#N)CCC3)no1,26.7
13,COc1ccc(Nc2ccccc2N)cc1.Cl,-1.13
14,CCN1C(=O)/C(=C/c2ccc(OCc3ccc(C(=O)O)cc3)c(Cl)c2)NC1=S,43.2
15,COc1cc(C)nc(OCCNS(=O)(=O)c2cc(C)ccc2C)n1,-7.54
16,CC(C(=O)Nc1ccccc1Cl)N(c1ccccc1)S(C)(=O)=O (centres unmarked),5.49
17,Nc1nonc1-n1nnc(C(=O)N/N=C/c2ccc(Cl)cc2Cl)c1CN1CCCCC1,10.7
18,Cc1ccc(-c2nc(CCNC(=O)c3ccco3)cs2)cc1,-16
19,CN(C)c1ccc(CNC(=O)CN(C)S(=O)(=O)c2cccc3cccnc23)cc1,-6.28
20,CC(C)(C)c1ccc(C(=O)NCC(=O)OCC(=O)c2ccc3c(c2)-c2ccccc2C3)cc1,-5.37
